# From PubChem BioAssay AID504339 (National Center for Advancing Translational Sciences (NCATS), 2011)
# The whole screen tested about 390,000 compounds, of which about 17,000 (4.4%) were called active. This list was built around the results that the source calls inconclusive (neither active nor inactive); the mix of calls is not that of the screen. The call rests on the fitted dose curve; in most records, active means well fitted inhibition curve with a large enough effect; inconclusive means small, poorly fitted or top-dose-only effect; inactive means no such curve, though single readings can be large or run the other way. Potencies beside an inconclusive call are fits to weak or partial responses and may not hold up.
# Biological target: Lysine-specific demethylase 4A (Homo sapiens) (UniProt O75164)
# Chain of UniProt O75164 (O75164 whole entry, looked up, the tested form may be a part): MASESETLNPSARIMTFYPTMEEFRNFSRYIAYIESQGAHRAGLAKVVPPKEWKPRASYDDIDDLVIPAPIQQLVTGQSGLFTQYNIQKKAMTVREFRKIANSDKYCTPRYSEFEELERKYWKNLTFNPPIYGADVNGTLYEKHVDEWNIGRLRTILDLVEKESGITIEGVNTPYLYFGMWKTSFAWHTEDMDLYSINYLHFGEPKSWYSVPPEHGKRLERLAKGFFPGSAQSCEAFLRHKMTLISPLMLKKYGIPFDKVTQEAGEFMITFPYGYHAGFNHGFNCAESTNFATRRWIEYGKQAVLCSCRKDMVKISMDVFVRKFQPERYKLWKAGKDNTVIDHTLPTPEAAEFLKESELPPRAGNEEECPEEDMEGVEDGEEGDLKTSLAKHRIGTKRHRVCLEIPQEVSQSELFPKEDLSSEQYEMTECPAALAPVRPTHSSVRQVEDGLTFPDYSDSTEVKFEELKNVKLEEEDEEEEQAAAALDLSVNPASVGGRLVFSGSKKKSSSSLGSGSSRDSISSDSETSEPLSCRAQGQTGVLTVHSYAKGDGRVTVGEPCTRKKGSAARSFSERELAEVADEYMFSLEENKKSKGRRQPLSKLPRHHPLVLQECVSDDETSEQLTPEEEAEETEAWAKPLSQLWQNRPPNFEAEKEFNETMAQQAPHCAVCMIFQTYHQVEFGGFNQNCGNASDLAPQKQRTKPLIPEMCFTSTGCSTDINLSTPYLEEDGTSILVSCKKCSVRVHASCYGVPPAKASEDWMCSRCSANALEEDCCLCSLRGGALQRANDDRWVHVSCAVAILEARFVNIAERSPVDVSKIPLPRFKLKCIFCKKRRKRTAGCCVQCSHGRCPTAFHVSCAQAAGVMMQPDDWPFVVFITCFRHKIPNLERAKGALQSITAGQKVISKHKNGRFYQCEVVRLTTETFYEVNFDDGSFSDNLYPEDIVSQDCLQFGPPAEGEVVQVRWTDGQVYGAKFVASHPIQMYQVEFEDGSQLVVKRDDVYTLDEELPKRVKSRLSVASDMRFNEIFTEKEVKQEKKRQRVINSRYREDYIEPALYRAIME
# Assay: qHTS Assay for Inhibitors of JMJD2A-Tudor Domain; further: nearly all actives have a fitted effect of over 50% in size
# Conditions: AlphaScreen JMJD2A-Tudor / H3K4me3 peptide binding; series mostly up to 114 µM
# Potency means the concentration at half of the fitted maximal effect; tags describe the fitted curve by direction and shape.
row,SMILES,Potency
1,CCN(c1ccccc1)S(=O)(=O)c1ccc(Cl)c(C(=O)NC2CCN(Cc3ccccc3)CC2)c1,inactive
2,O=[N+]([O-])c1ccc(S(=O)(=O)Nc2ccc3c(c2)OCCO3)cc1,"inconclusive: 50.1 µM [inhibitor, partial curve, poor fit]"
3,Cc1ccc(S(=O)(=O)N2CCN(C(=O)COC(=O)COc3ccc(Cl)c(C)c3)CC2)c(C)c1,"inconclusive: 89.1 µM [inhibitor, single point]"
4,CC(=O)N1N=C(c2ccc(NS(=O)(=O)c3ccccc3)cc2)CC1c1ccco1 (centres undefined),"inconclusive: 50.1 µM [inhibitor, partial curve]"
5,Cc1nnc(SCCOc2ccccc2)s1,inactive
6,COc1ccc(CN2CCN(CCCCOc3ccc(Cl)cc3)CC2)c(OC)c1OC,active: 6.31 µM
7,COc1ccccc1NS(=O)(=O)c1cccc(N=C2N=C(N)c3ccccc32)c1,"inconclusive: 56.2 µM [inhibitor, partial curve]"
8,COc1ccc(NC(C)(C)c2nnnn2-c2c(C)cccc2C)cc1,inactive
9,O=C1c2cccc(NCCNCCO)c2C(=O)c2cccc(NCCNCCO)c21,active: 35.5 µM
10,CC(C)Oc1cccc(C2CC(=O)Nc3cc4c(cc32)OCO4)c1 (centres undefined),"inconclusive: 10 µM [inhibitor, partial curve]"
11,O=S(=O)(Nc1ccc(N2CCOCC2)cc1)c1ccc2ccccc2c1,"inconclusive: 56.2 µM [inhibitor, partial curve]"
12,O=C(Nc1cccc2ccccc12)/C(=C/c1ccc([N+](=O)[O-])cc1)NC(=O)c1ccccc1,"inconclusive: 39.8 µM [inhibitor, partial curve]"
13,CNC(=O)C(=O)Nc1nc(C23CC4CC(CC(C4)C2)C3)cs1,inactive
14,Cc1noc(C)c1C(=O)OCC(=O)Nc1c(F)cccc1F,"inconclusive: 7.94 µM [inhibitor, full curve]"
15,CN1CCN(C=NC2=NN(c3cccc(C(F)(F)F)c3)CC2)CC1,"inconclusive: 50.1 µM [inhibitor, partial curve]"
16,COc1ccccc1N1C(=O)C=C(Sc2nc(C)cc(C)n2)C1=O,active: 7.94 µM
17,Cc1ccc(NC(=O)c2cc(C)nc3ccccc23)c(Br)c1,"inconclusive: 44.7 µM [inhibitor, partial curve]"
18,Cc1[nH]c2ccccc2c1C(c1ccncc1)N1CCC(C)CC1 (centres undefined),"inconclusive: 39.8 µM [inhibitor, full curve, poor fit]"
19,COc1ccc(N2CCN(C(=O)C(Cc3ccccc3)NC(=O)c3ccccc3)CC2)cc1 (centres undefined),"inconclusive: 39.8 µM [inhibitor, partial curve]"
20,Nc1nc(-c2ccccn2)nc(N)c1Cc1c(F)cccc1Cl,active: 79.4 µM
21,Cc1csc(NC(=O)CSc2nnc(-c3ccccn3)n2-c2ccc(C)c(C)c2)n1,"inconclusive: 28.2 µM [inhibitor, full curve]"
22,ON1C(c2ccc(Cl)cc2Cl)N(O)[C@H]2CCCC[C@H]21 (some centres undefined),inactive
23,COc1cccc(C(c2c(C)[nH]n(-c3ccccc3)c2=O)c2c(C)[nH]n(-c3ccccc3)c2=O)c1O,"inconclusive: 56.2 µM [inhibitor, partial curve]"
24,O=C(/C=C/c1ccccc1)N/C(=C/c1ccccc1)C(=O)NCCO,"inconclusive: 112 µM [inhibitor, partial curve, poor fit]"
25,N#Cc1c(-n2ncnc2-c2cccc(Br)c2)sc2c1CCCCC2,"inconclusive: 39.8 µM [inhibitor, partial curve]"

row,SMILES,Potency
1,N#CC1(c2ccccc2)CCC(NCCc2ccccc2)CC1 (centres undefined),active: 50.1 µM
2,CN(C)c1ccc(CNC(=O)c2ccc(NC(=O)N3CCCCc4ccccc43)cc2)cc1,active: 35.5 µM
3,Cc1sc2nc(CSC(C)C(=O)N3CCOCC3)[nH]c(=O)c2c1C (centres undefined),inactive
4,NCCN1C(=O)S/C(=C\c2ccc3c(c2)OCO3)C1=O,inactive
5,C=CCN(C(=O)c1cccc(S(=O)(=O)N2CCN(C)CC2)c1)c1nc(-c2ccccc2)cs1,"inconclusive: 22.4 µM [inhibitor, full curve]"
6,Cc1cc(C)n(CC(O)Cn2c(C)c(C)c3ccccc32)n1 (centres undefined),active: 3.55 µM
7,O=S(=O)(Nc1cc(F)ccc1F)c1ccc2[nH]c3c(c2c1)CCCCC3,"inconclusive: 44.7 µM [inhibitor, partial curve]"
8,Cc1ccc2oc(=O)c3cc(C(=O)N4CCN(c5ccccc5F)CC4)sc3c2c1,inactive
9,CCc1cccc(NC(=S)Nc2cccc3ccccc23)c1,inactive
10,CCOc1ccc(CCNC(=O)CN2C(=O)COc3ccc(S(=O)(=O)N4CCCCCC4)cc32)cc1,"inconclusive: 89.1 µM [inhibitor, partial curve]"
11,O=C(NCC1CCCO1)c1sc(=S)n2c1[nH]c(=O)c1ccc(C(=O)N3CCCCC3)cc12 (centres undefined),"inconclusive: 56.2 µM [inhibitor, partial curve, poor fit]"
12,CCC1(C)Cc2nc3sc(C(=O)O)c(N)c3cc2CO1 (centres undefined),active: 50.1 µM
13,Cn1ccnc1SCC(=O)NC1(C#N)CCCCC1,inactive
14,Oc1[nH]c2ccccc2c1N=Nc1ccccc1Cl,inactive
15,CC1CCC(=O)N(CCC#N)CC1 (centres undefined),inactive
16,CCOC(=O)c1ccc(S(=O)(=O)N2CCN(c3nc(-c4cccs4)nc4ccccc34)CC2)cc1,inactive
17,CCN(CC)c1cnn(C/C(=N\OC)c2ccc(Cl)cc2)c(=O)c1Br,inactive
18,C=CCNC(=S)N/N=C/c1cn(-c2ccccc2)nc1-c1ccc(OC)cc1,inactive
19,CCOc1cc(/C=C2/C(=O)NN(c3cccc(Cl)c3)C2=O)ccc1O,"inconclusive: 28.2 µM [inhibitor, full curve]"
20,O=C(CCCC1=NS(=O)(=O)c2ccccc2N1)OCc1ccc(Cl)cc1,inactive
21,CC(Sc1nc2ccc(C(=O)c3ccccc3)cc2[nH]1)C(=O)O (centres undefined),inactive
22,COc1ccc(/C=N/Nc2cc(N3CCOCC3)nc(C)n2)c(OC)c1,"inconclusive: 56.2 µM [inhibitor, partial curve]"
23,COc1ccc(CN(CC2CCC(C(=O)O)CC2)C(=S)Nc2cc(Cl)ccc2OC)cc1 (centres undefined),inactive
24,CCOC(=O)c1cc2c(=O)n3ccccc3nc2n(Cc2ccco2)c1=NC(=O)c1cccc(F)c1,inactive
25,Cn1c(=O)c2c(nc(SCCN3CCOCC3)n2Cc2cccc3ccccc23)n(C)c1=O,"inconclusive: 63.1 µM [inhibitor, partial curve]"

row,SMILES,Potency
1,CC(C)N(C(=O)CSc1nnc(Cc2csc(Nc3ccccc3)n2)o1)C(C)C,"inconclusive: 44.7 µM [inhibitor, full curve, poor fit]"
2,Cc1nc2cc(C(=O)NC3CCCCCC3)ccc2n1-c1ccc(Br)cc1,inactive
3,Cc1cc(OCC(=O)OCC(=O)NCc2cccs2)ccc1Cl,inactive
4,Cc1ccc(C)c(N2CCN(C(=O)CSc3ccsc3[N+](=O)[O-])CC2)c1,"inconclusive: 39.8 µM [inhibitor, partial curve]"
5,Cc1ccc([N+](=O)[O-])c(C)[n+]1C,active: 14.1 µM
6,Cc1ccc2cc(C3C(C#N)=C(N)Oc4c3ccc3cccnc43)c(=O)[nH]c2c1 (centres undefined),"inconclusive: 56.2 µM [inhibitor, partial curve]"
7,C=CCNc1nc(C(=O)OCC(=O)c2ccc(OC)cc2OC)cs1,inactive
8,O=C1NC(c2ccco2)Nc2sc3c(c21)CCN(Cc1ccccc1)C3 (centres undefined),"inconclusive: 39.8 µM [inhibitor, partial curve]"
9,CCc1cc(=S)n2c([nH]c3ccccc32)c1C#N,active: 20 µM
10,CCOc1ccc(NS(=O)(=O)c2ccc3c(c2)N(C(C)=O)CCS3)cc1,"inconclusive: 25.1 µM [inhibitor, full curve]"
11,COc1ccc(C2=NNC(c3cccs3)=Nc3ccc(OC)cc32)cc1,"inconclusive: 56.2 µM [inhibitor, partial curve]"
12,Cc1cccc(NC(=O)c2sc3nc4c(cc3c2N)CN(C(C)C)CC4)c1,active: 50.1 µM
13,CC(Nc1ccc2c(c1)OCCO2)C(=O)N1c2ccccc2CC1C (centres undefined),"inconclusive: 39.8 µM [inhibitor, partial curve]"
14,COCCCNC(=O)CSc1nc2cc3c(cc2c(=O)n1CCCCCC(=O)NCc1ccc2c(c1)OCO2)OCO3,inactive
15,Cc1nc(NC(=O)c2c(-c3ccccc3)c(-c3ccccc3)nn(C)c2=O)sc1C,"inconclusive: 50.1 µM [inhibitor, partial curve]"
16,CCOC(=O)c1cnc(SCC(=O)c2ccc(C)cc2)nc1N,inactive
17,C1=C(N2CCOCC2)/C(=C/c2nc3ccccc3[nH]2)CC1,"inconclusive: 79.4 µM [inhibitor, partial curve]"
18,COCCCN1C(=O)c2[nH]nc(-c3ccccc3O)c2C1c1ccc(OCc2ccccc2)cc1 (centres undefined),"inconclusive: 11.2 µM [inhibitor, full curve, poor fit]"
19,O=C(CN(C1CCCCC1)S(=O)(=O)c1ccc(F)cc1)Nc1ccc2c(c1)OCO2,"inconclusive: 79.4 µM [inhibitor, partial curve]"
20,Cc1ccc(NC(=O)Cn2c(=O)n(CCCCC(=O)NCCc3ccc(Cl)cc3)c(=O)c3ccccc32)cc1,inactive
21,O=C(NCCN1CCN(c2ccccc2)CC1)c1cccc(Br)c1,"inconclusive: 50.1 µM [inhibitor, partial curve]"
22,O=C(Nc1c(Cl)cc([N+](=O)[O-])cc1Cl)c1cc(Cl)ccc1O,"inconclusive: 50.1 µM [inhibitor, partial curve]"
23,O=C(Nc1cc(Cl)ccc1-n1cncn1)c1cccs1,inactive
24,O=P(OCC1CCCO1)(OCC1CCCO1)OCC1CCCO1 (centres undefined),inactive
